The target in test [1] is T1, Recombinant human VEGFA (Sino Biological, catalog number 11066-HNAB) (human).
T1 construct: also called VEGF antigen; Human/Cynomolgus VEGF/VEGFA/VEGF165 Protein
T1 chain: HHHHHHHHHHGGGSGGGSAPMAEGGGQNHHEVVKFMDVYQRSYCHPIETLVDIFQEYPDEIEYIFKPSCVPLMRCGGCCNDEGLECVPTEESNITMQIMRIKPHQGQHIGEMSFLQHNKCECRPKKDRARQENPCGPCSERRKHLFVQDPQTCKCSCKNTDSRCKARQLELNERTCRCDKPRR
The test is described as follows: BLI (Octet RED96e), told of the group.

Test [2] addresses T1, Recombinant human VEGFA (Sino …). The test is described as follows: BLI (Octet RED96e), antibody captured at 5 µg/mL, VEGFA at 50 and 25 nM.

B1: DotAb4 (Fc fusion)
chain: EVQLVESGGGLVQPGGSLRLSCAISGFSLAATDIDWVRQAPGKGLEWVARIFSPSDFTDYADSVKGRFTISADTSKNTVYLQMNSLRAEDTAVYYCGRPDTYAYNIFLDTPTYNALHYRGQGTLVTVSSGGGGS[human IgG4 Fc with S228P (EU numbers) not given here]
notes: also called Antibody DotAb4; anti-VEGFA nanobody DotAb4
As for B1, the Kd in test [1] was < 500 pM. In test [2], the dissociation constant (Kd) was < 26.6 pM, the koff is < 1e-05 s⁻¹ and the kon was 375000 M⁻¹ s⁻¹.

The record behind these values is patent publication EP4717714A1 (Shanghai Junshi Biosciences Co., Ltd., dated 2026).
